Patent US6153604A, “Therapeutic substituted guanidines” (Cambridge NeuroScience, Inc., priority 1995, dated 2000)
Counter-ions that a name gives are not always drawn.

biological target: PCP receptor; assay: PCP receptor radioligand binding assay ([3H]MK-801, rat brain membranes); conditions: read-out: [3H-MK801] Ki (head printed "Kj"); derived from the IC50 values as described by Cheng et al.

Compound	Ki
CCc1cccc(NC(=N)Nc2cc(C(F)(F)F)ccc2Br)c1 [Compd. No. 4 (Table I), N-(3-Ethylphenyl)-N'-(2-bromo-5-trifluoromethylphenyl)guanidine hydrochloride]	66.8 nM
CSc1ccc(Br)c(NC(=N)N(C)c2cccc(C(F)(F)F)c2)c1 [Compd. No. 69 (Table I), N-(3-Trifluoromethylphenyl)-N-methyl-N'-(2-bromo-5-methylthiophenyl)guanidine hydrochloride]	4.27 nM
CCc1ccc(Br)c(NC(=N)N(C)c2cccc(C(F)(F)F)c2)c1 [Compd. No. 70 (Table I), N-(3-Trifluoromethylphenyl)-N-methyl-N'-(2-bromo-5-ethylphenyl)guanidine hydrochloride]	15.7 nM
CN(C(=N)Nc1cccc2ccccc12)c1cccc(Cl)c1 [Compd. No. 52 (Table I)]	82.3 nM
CCc1cccc(NC(=N)Nc2cc(CC)ccc2Cl)c1 [Compd. No. 8 (Table I), N-(3-Ethylphenyl)-N'-(2-chloro-5-ethylphenyl)guanidine hydrochloride]	34.7 nM
CCc1cccc(NC(=N)Nc2cc(CC)ccc2Br)c1 [Compd. No. 23 (Table I), N-(3-Ethylphenyl)-N'-(2-bromo-5-ethylphenyl)guanidine hydrochloride]	24.9 nM
N=C(Nc1cc(Br)ccc1Br)Nc1cccc2ccccc12 [Compd. No. 32 (Table I), N-(1-Naphthyl)-N'-(2,5-dibromophenyl)guanidine hydrochloride]	37.3 nM
Cc1ccc(Cl)c(NC(=N)Nc2cccc3cccnc23)c1 [Compd. No. 48 (Table I), N-(8-Quinolinyl)-N'-(2-chloro-5-methylphenyl)guanidine hydrochloride]	24.4 nM
CSc1ccc(Cl)c(NC(=N)Nc2cccc3ccccc23)c1 [Compd. No. 46 (Table I), N-(1-Naphthyl)-N'-(2-chloro-5-thiomethylphenyl)guanidine hydrochloride]	33.2 nM
CN(C(=N)Nc1cc(Br)ccc1Br)c1cccc(C(F)(F)F)c1 [Compd. No. 71 (Table I), N-(3-Trifluoromethylphenyl)-N-methyl-N'-(2,5-dibromophenyl)guanidine hydrochloride]	26.1 nM
CCc1cccc(N(C)C(=N)Nc2cc(C(F)(F)F)ccc2Br)c1 [Compd. No. 13 (Table I), N-(3-Ethylphenyl)-N-methyl-N'-(2-bromo-5-trifluoromethylphenyl)guanidine hydrochloride]	78.4 nM
